In US6475531B1, “Safe botanical drug for treatment and prevention of influenza and increasing immune function” (priority 2001, dated 2002):
Converted amounts (≈) assume the structure as drawn.

Tested on: B/Hong Kong/76
Experiment: Plaque inhibition assay in MDCK cells
Format: cell-based, influenza B viruses
Details: Influenza B virus

| SMILES | IC50 [µg/mL] |
| --- | --- |
| NC12CC3CC(CC(C3)C1)C2 [Amantadine] | 125 (≈ 826 µM) |
| NC(=O)c1ncn([C@@H]2O[C@H](CO)[C@@H](O)[C@H]2O)n1 [Ribavirin] | 54 (≈ 221 µM) |
